Experimental data: ChEMBL document CHEMBL4888484, “Replenishing the malaria drug discovery pipeline: Screening and hit evaluation of the MMV Hit Generation Library 1 (HGL1) against asexual blood stage Plasmodium falciparum ,using a nano luciferase reporter read-out” (2022)
Values joined by “and” are separate entries in the source; they are usually repeats but may differ in a detail not shown here. Identical values can stand only once. Hit rate of the full screen: of about 150,000 compounds, about 540 (0.36%) showed an effect of 50% or more. The list shows a part of the results.

Test system: Plasmodium falciparum
Experiment: Primary screen in NF54 nanoGlo assay, in single point, at 2uM, 72h; a lower Z score goes with more inhibition
Format: functional, Erythrocyte
Settings: timepoint 72 hour

SMILES	% Inhibition [%]	Z score	% Inhibition (2 µM)
CCc1cccc(OC[C@@H](O)Cn2c(-n3nc(C)cc3C)nc3c2c(=O)[nH]c(=O)n3C)c1	3	-0.37	–
CC(C)(C)c1ccc(Cn2c(C(=O)NCc3ccco3)cc3cc(NC(=O)c4ccco4)ccc32)cc1	-5	0.52	–
c1cc([C@@H](NCc2nc(CC3CC3)no2)C2CC2)ccn1	0	0.07	–
COc1ccc(C(=O)N2CCN(c3nnc4ccc(Cl)cn34)CC2)cc1	-10	1.87	–
CC1CCCC(OC(C)C(=O)N(C)C)C1 (configuration not stated)	-1	0.07	–
Cc1nc(C)c(C)c(N(C)Cc2cccc(CN(C)C)c2)n1	0	-0.03	–
Cn1c(-c2cccc(Cl)c2)cn2cc(-c3cccc(Br)c3)nc12	-8	0.95	–
C[C@H]1CN(S(C)(=O)=O)C(C)(C)CO1	-6	0.8	–
Cc1ccc(C)c(CNC(=O)[C@H]2CCc3nc(N4CCCC4)ncc3C2)c1	-4	0.73	–
C[C@]1(CO)C2CC[C@@H](O)[C@@H](CC(=O)N3CCCC3)[C@]2(C)CC[C@H]1OC(=O)Nc1ccccc1 (some centres not stated)	-8	1.18	–
Cn1nccc1CNc1ncn(CC(=O)N2CCCCCC2)n1	-3	0.36	–
Cc1cnc(OC2CCN(Cc3cn4cccc(F)c4n3)CC2)nc1	-14	2.23	–
O=C(NCCc1ccc(Cl)s1)C1CCC1	5	-0.72	–
O=C(NC(=O)C(F)(F)F)Nc1c(Cl)cc(Cl)cc1Cl	3	-0.44	–
Cc1ccc(S(=O)(=O)N2CC[C@H](Oc3cccc4cccnc34)C2)s1	-18	3.51	–
COc1cccc([C@H]2CN(c3ccnc(C)n3)C[C@@H]2C(=O)O)c1OC	-10	1.41	–
COc1ccc([C@@H]2CCC(=O)N2Cc2cc(F)cc(F)c2)cc1	-16	1.95	–
CC1CN(C(=O)Nc2nncs2)CC(C)O1 (configuration not stated)	21	-2.79	–
CC(C)n1ccc(CC(=O)Nc2cc(Cl)ccc2NC2CC2)n1	-1	0.1	–
Cc1cc(-c2ccc([C@H](C)N3CCCCC3)cc2)c(=O)[nH]n1	5	-1.04	–
Cc1cccc(Nc2nc(C(=O)N3CCN(c4cccc(Cl)c4Cl)CC3)cs2)n1	24	-2.7	–

SMILES	% Inhibition [%]	Z score	% Inhibition (2 µM)
CCN1CCC(NC(=O)c2nnn(Cc3ccc(F)cc3F)c2C)CC1	1	-0.15	–
Cc1nccn1CCN(C)C[C@H](C)C(F)(F)F	1	-0.14	–
CC(c1cccnc1)N(C(=O)COCC1CCCO1)C1CC1 (configuration not stated)	-6	0.78	–
Cc1n[nH]c(C)c1CNC(=O)[C@]1(Cc2ccccc2)CCCCC(=O)N1	-12	1.35	–
Cn1cnc2cc(C(=O)N3C[C@H]4C[C@H](O)[C@@H](O)C[C@H]4C3)cnc21	-11	1.4	–
Cc1ccc(-c2cc(C(=O)NCC(C)(C)N3CCOCC3)n[nH]2)s1	-6	1.21	–
COCCCNC(=O)c1cn2ccnc(-c3ccccc3)c2n1	33	-3.76	–
C[C@H](F)CCNS(=O)(=O)N1CCCC1	-10	1.2	–
Cc1ccc(NC(=O)c2cccc(CN3CCNC(=O)C3)c2)nn1	-13	1.52	–
Cc1cnc(CCNC(=O)[C@H]2CCN(c3ccccc3Cl)C2)nc1	-7	1.15	–
Cc1nc2cc(NC(=O)c3sccc3C)ccc2o1	-5	0.72	–
c1ccc2c(c1)CC(n1ncnc1COC[C@H]1CCCCO1)C2	-12	1.74	–
N#Cc1ncn(Cc2nnnn2-c2ccc(OC(F)F)cc2)c1C#N	-4	0.44	–
CCc1ccc(N2CC(C(=O)N3CCOCC3CC(C)=O)CC2=O)cc1 (configuration not stated)	-16	1.4	–
CCOc1ncccc1C(=O)Nc1cccnc1-n1cccn1	-13	1.24	–
C[C@@](CO)(CNCc1cn2ccccc2n1)c1ccccc1	-7	1.48	–
O=c1[nH]cnc2[nH]c(-c3ccccc3)nc12	2	-0.22	–
CC1(C)OC(=O)N(CCCCOc2ccccc2)C1=O	-16	2.2	–
CC(C)N(CC(F)(F)F)C(=O)CN1C(=O)C[C@@](C)(C(C)C)C1=O	-2	0.27	–
Cc1cc(C)n(-c2nc3c(c(=O)n2CC(=O)Nc2ccc4c(c2)OCO4)CCC3)n1	8	-1.01	–
Cc1ccc(S(=O)(=O)c2ccc(C(=O)Nc3cccc(C#N)c3)s2)cc1	-16	1.97	–

SMILES	% Inhibition [%]	Z score	% Inhibition (2 µM)
O=C(Nc1ccccn1)c1cccnc1O	-7	1.27	–
C[C@@H](C1CC1)N(CC(F)(F)F)C(=O)c1ccco1	3	-0.58	–
CCCN(CCC)CCN1C(=O)[C@@H]2C(C(=O)Nc3cccc(OC)c3)[C@@H]3C=C[C@]2(O3)C1C(=O)NC1CCCCC1C (some centres not stated)	25	-3.85	–
Cc1cc(=O)c(C(=O)NC[C@H]2CCCO2)c(Cc2cccc(F)c2)n1CCCN1CCOCC1	-13	1.89	–
Cc1ccc(NCc2cn3c(C)cc(C)nc3n2)c(F)c1	-2	0.39	–
CCN(CC)C(=O)[C@@H]1CC2(CN(Cc3ccccc3)C2)CN1C	-3	0.35	–
NC(=O)Cc1nc(C2CCC2)n(Cc2c(F)cccc2Cl)n1	2	-0.32	–
CC(C)(C)OC(=O)[C@@H]1OCCNC1=O	-11	1.39	–
COc1cccc(-c2cnccn2)c1C(=O)N(C(C)C)C(C)C	-14	1.88	–
O=C(Nc1ccc(Cl)cc1)C1CCN(C(=O)c2ccc3c(c2)nnn3C2CCCC2)CC1	-4	0.74	–
Cc1ccc(CC(=O)N[C@H](CO)CC(C)(C)C)cc1O	-8	0.96	–
CS(=O)(=O)N1CCC(OC2CCN(C(=O)Nc3ccccc3)CC2)CC1	3	-0.37	–
CN1CC2(C[C@H]1c1nnc(-c3ccccc3)o1)CN(C(=O)c1cncnc1)C2	-6	0.68	–
C[C@H](NCc1ccc(-c2ccc(Cl)cc2F)o1)c1ncn[nH]1	-14	1.66	–
CC1=C(C(N)=O)[C@H](c2cccc(Oc3ccccc3)c2)n2ncnc2N1	1	-0.15	–
COc1ccc([C@H](C)NC(=O)NCCc2csc(C)n2)c(OC)c1	2	-0.3	–
Cn1nc(N2CCC[C@H](NS(=O)(=O)Cc3ccccc3)C2)ccc1=O	-14	1.76	–
Cc1nn(C)c2nc(N(C)CCN3CCCCC3=O)sc12	5	-0.72	–
Cc1cc(C)n2c(C(=O)N(C)Cc3c(C)noc3C)nnc2n1	-3	0.61	–
COc1ccc(Cn2nc(C)cc2NC(=O)N2C[C@H]3CC[C@H]2C3)cc1OC	-23	3.41	–
CCc1oc(C(=O)N2CCC[C@@H]2CC)cc1CN(CC)CC	-16	1.78	–

SMILES	% Inhibition [%]	Z score	% Inhibition (2 µM)
C[C@H](Oc1ccc(F)cc1)C(=O)N1CCCc2cc(S(=O)(=O)N3CCCC3)ccc21	-9	1.18	–
COCCCn1nccc1CNc1nnc(-c2cccc(OC(F)F)c2)o1	-11	1.25	–
CN1CCN([C@H]2CCN(Cc3cc(C(C)(C)C)[nH]n3)C[C@H]2CCC(=O)O)CC1	-4	0.82	–
O=C(c1ccc[nH]1)N1C[C@@H]2OC(=O)N(CCc3cccc(Cl)c3)[C@@H]2C1	-9	1.63	–
C[C@H]1CC(C)(C)CN1C(=O)Cc1ncc[nH]1	-10	1.27	–
Cn1ncc(C(=O)N[C@H]2CCCc3c(F)cc(F)cc32)c1Cl	-10	1.21	–
Cc1cc(C)cc(-n2nnc(-c3nc(-c4cccnc4)no3)c2N)c1	-2	0.31	–
CCCC(O)(CCC)CNC(=O)C(=O)Nc1ccn(Cc2cccnc2)n1	-9	0.98	–
COCCN1CC2(CCC1=O)CCN(Cc1cnc(N(C)C)nc1)CC2	-2	0.28	–
CCn1c(-c2cc(NC(=O)CC3CCCCC3)[nH]n2)cc2ccccc21	0	-0.01	–
Cc1noc(C)c1CN(C)C(=O)NCc1ccccn1	-2	0.37	–
C[C@H](NC(=O)C1CCC(F)(F)CC1)C(N)=O	1	-0.17	–
N#Cc1c[nH]c(C(=O)NC[C@@H](CO)Cc2ccccc2F)c1	-16	1.88	–
CC(C)(C)OC(=O)NC1CCOC(C2CCN(C(=O)c3cncs3)CC2)C1 (configuration not stated)	5	-0.63	–
O=C(NC[C@@H](c1cccs1)N1CCCCC1)c1cccc(Cl)c1	–	–	2% and 8%
Cc1ncsc1CN1CCC2(CC1)C[C@H](c1ccccc1)C(=O)N2C	-13	2.11	–
Cc1cc(C)n(Cc2cc(C(=O)N(C)CCCN3CCOCC3)n[nH]2)n1	-9	0.95	–
Cc1cc(-c2cncc(N)c2)cc2sc(N)nc12	1	-0.13	–
Cc1nnc2n1CCN(CC(=O)N1CCOC3CCCCC31)C2 (configuration not stated)	0	0.01	–
CCC(C)(C)C(=O)N1C[C@H](c2nc(-c3ccccc3)no2)C2(CCOCC2)C1	-12	1.95	–
CCC1=NO[C@@H](Cn2cnc(-c3ccccc3)c2-c2ccc(F)cc2OC)C1	-4	0.78	–
